Experimental data: PMC4336329 (PLoS ONE, 2015)
The whole screen tested about 310,000 compounds, of which about 2,200 (0.71%) showed an effect of 50% or more. The effect is printed as a negative number. The list shows a part of the results.

molecular target: human ether-à-go-go-related gene (hERG) potassium channel (human, UniProt Q12809); experiment: primary screen, population patch clamp on CHO cells stably expressing hERG
Sequence (Q12809 whole entry, looked up): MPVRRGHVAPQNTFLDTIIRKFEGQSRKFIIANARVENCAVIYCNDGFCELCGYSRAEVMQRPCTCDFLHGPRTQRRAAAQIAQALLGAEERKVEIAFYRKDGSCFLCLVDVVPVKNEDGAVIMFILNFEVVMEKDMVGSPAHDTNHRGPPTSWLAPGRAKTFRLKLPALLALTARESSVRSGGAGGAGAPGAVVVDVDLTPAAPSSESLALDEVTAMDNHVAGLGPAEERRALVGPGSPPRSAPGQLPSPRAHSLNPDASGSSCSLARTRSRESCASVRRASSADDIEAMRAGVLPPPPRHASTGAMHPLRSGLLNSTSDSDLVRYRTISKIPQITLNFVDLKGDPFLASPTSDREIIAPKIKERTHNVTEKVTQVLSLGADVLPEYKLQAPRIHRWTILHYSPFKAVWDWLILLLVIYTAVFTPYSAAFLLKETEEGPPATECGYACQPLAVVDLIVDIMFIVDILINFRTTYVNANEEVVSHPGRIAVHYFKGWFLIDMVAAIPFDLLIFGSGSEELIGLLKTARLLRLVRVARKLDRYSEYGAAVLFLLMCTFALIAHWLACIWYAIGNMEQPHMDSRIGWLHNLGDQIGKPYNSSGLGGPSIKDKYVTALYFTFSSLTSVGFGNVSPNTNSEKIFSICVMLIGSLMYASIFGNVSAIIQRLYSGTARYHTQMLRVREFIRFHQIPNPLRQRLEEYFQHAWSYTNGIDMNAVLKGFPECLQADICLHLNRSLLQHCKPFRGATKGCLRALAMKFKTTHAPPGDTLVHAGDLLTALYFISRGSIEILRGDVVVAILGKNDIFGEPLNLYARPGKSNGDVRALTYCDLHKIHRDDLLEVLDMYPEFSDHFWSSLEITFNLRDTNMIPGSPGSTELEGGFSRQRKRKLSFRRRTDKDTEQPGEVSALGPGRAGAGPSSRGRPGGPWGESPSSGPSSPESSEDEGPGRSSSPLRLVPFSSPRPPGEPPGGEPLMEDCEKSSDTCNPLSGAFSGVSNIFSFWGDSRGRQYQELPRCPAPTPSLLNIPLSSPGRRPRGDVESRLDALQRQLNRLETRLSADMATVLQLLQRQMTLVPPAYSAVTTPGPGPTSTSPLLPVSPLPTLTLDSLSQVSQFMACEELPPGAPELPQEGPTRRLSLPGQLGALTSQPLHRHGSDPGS

SMILES	hERG current change (%, negative = inhibition) at 1uM [%]
FC(F)(F)c1cnc(NNC(=S)Nc2ccc(Cl)cc2)c(Cl)c1	11.4
C/C(=N/NS(=O)(=O)c1ccc(Br)cc1)c1ccc(NC(=O)c2ccc(C)o2)cc1	8.78
CCCN(CCC)CC(O)Cn1cc(/C=C/C(=O)c2cccs2)c2ccccc21 (centres unmarked)	12.3
CC(C)c1ccc(NC2CCCN(C(=O)CCCn3cncn3)C2)cc1 (centres unmarked)	-0.211
O=C(NCCc1ccccc1)C1CCN(S(=O)(=O)N2CCCCC2)CC1	10.5
CCNC(=S)NC1CC2CCC(C1)N2Cc1ccccc1 (centres unmarked)	-3.16
O=C1CC(N2CCOCC2)C(=O)N1CCc1ccccc1 (centres unmarked)	9.9
Cc1ccccc1-c1nc(CN2CCC(C(=O)NCCC3=CCCCC3)CC2)c(C)o1	-32
COc1ccc(NS(=O)(=O)c2c(F)cccc2F)cc1S(=O)(=O)N1CCOCC1	12
Cc1cccc(NC(NC(=O)c2cccnc2)C(Cl)(Cl)Cl)c1 (centres unmarked)	1.37
CCc1nnc(NC(=O)CSc2nc(C)nc3c2c(=O)n(C)c(=O)n3C)s1	9.24
O=C(CNC(=O)c1ccc(Cl)cc1Cl)Nc1ccc(F)cc1	10.1
Clc1cccc(Cl)c1CSc1nnc(-c2sccc2-n2cccc2)o1	12.9
COc1ccccc1NC(=O)CN1C(=O)C2(OCCCO2)c2ccccc21	-2.64
O=C(NCc1nnc2c(C(F)(F)F)cc(Cl)cn12)c1ccco1	4.35
Cc1cc(C(=O)NCc2ccccc2F)c2ccccc2n1	13.2
CCOC(=O)N1CCN(C(=O)c2cc(S(=O)(=O)N3CCc4ccccc43)ccc2OC)CC1	-7.66
O=C(NCc1ccc(Cl)cc1)C1CCC(CNc2c(N3CCCCC3)c(=O)c2=O)CC1 (centres unmarked)	11.6
CCC1(c2ccccc2)NC(=O)N(CC(=O)Nc2cc(S(=O)(=O)N3CCCCCC3)ccc2OC)C1=O (centres unmarked)	5.11
O=C(COc1ccc2c(C(F)(F)F)cc(=O)oc2c1)Nc1ccc(N2CCOCC2)cc1	6.04
CCOC(=O)c1sc(NC(=O)c2ccc(Cl)s2)cc1C	-0.539
N#CC1(NC(=O)Cn2ncc(Cl)c(Cl)c2=O)CCCCC1	24.1

SMILES	hERG current change (%, negative = inhibition) at 1uM [%]
CC1CCCC(NC(=O)COC(=O)/C=C/c2ccc(S(=O)(=O)N3CCOCC3)cc2)C1C (centres unmarked)	3.56
CN(C)S(=O)(=O)Oc1ccsc1C(=O)Nc1cccc(Cl)c1Cl	-6.59
COc1ccc(CCN2C(=O)CS/C2=N\NC(=O)c2cccs2)cc1OC	6.09
COC(CNC(=O)c1c[nH]c2ccc(S(=O)(=O)N3CCOCC3)cc2c1=O)OC	3.17
CCN(CC)CCNC1=NCCn2c1cc1cc(OC)ccc12.Cl	-45
Cc1cc2cc(CNC(=S)NC3CCCCC3)ccc2n1C	7.95
COC(=O)c1cc(Br)c(=O)n(Cc2ccc(C(=O)O)cc2)c1	17
COc1ccc(OC)c(N=Cc2c(O)[nH]c3ccccc23)c1	5.55
COc1ccc(CNC(=O)CN(Cc2ccc(OC)cc2)C(=O)CCC(=O)Nc2ccccn2)cc1	-17.9
CCOc1ccc(C(=O)Nc2ccccc2CC)cc1[N+](=O)[O-]	0.822
CCOc1cc2c(cc1OCC)C(c1ccc(OC)c(OC)c1)N(c1ccc(C(=O)O)cc1)C(=O)C2 (centres unmarked)	19.3
CCCN(CC(=O)NC(=O)NC1CCCCC1)CC(=O)Nc1cc(Cl)ccc1Cl	11.7
COCCN(C(=O)CSc1nc2ccccc2c(=O)n1C(C)COC)c1c(N)n(Cc2ccccc2)c(=O)[nH]c1=O (centres unmarked)	13.1
CC(C)(C)CN1C(=O)C(=O)NC[C@@H]1Cc1ccc(O)cc1	15.4
CCOC(=O)c1cccc(NC(=O)CSc2nc3ccccc3c(=O)n2CC)c1	12.4
CCn1cc(C(=O)O)c(=O)c2cnc(N3CCN(C(=S)Nc4ccccc4Cl)CC3)nc21	8
COc1ccc(Br)cc1-c1noc(-c2ccncc2)n1	15.9
O=C(NC1CCCCCC1)C1CCN(C(=O)c2ccc(Br)cc2)CC1	7.07
OCCC1CN(Cc2cnc(N3CCCC3)s2)CCN1Cc1ccccc1 (centres unmarked)	16
CCC(c1nnnn1C(C)(C)C)N(Cc1ccco1)Cc1cc2cccc(C)c2[nH]c1=O (centres unmarked)	3.3
Cc1ccc(C(=O)NC(=S)Nc2ccc(CN3CCOCC3)cc2)cc1	9.39
CCc1cc(N2CCOCC2)cc2c1[nH]c1ccccc12	4.09

SMILES	hERG current change (%, negative = inhibition) at 1uM [%]
CCOC(=O)CCCNC(=O)CCNC(=O)c1ccc(OC(C)C)cc1	8.34
CC(=O)n1c2ccccc2c2c1c1ccccc1n2C	5.83
COc1cccc(CN2CC(C(=O)N3CCCO3)CCC2=O)c1 (centres unmarked)	8.39
O=Nc1c(O)n(Cc2cccc(Cl)c2)c2ccccc12	10.8
Cc1cc(C)c(NC(=O)CN(C)C(=O)c2ccc(OCc3ccccc3)cc2)c(C)c1	12.9
COc1ccc(CN(C(=O)c2snc(C(N)=O)c2N)C(C(=O)NC2CCCC2)c2ccc(OC)c(OC)c2)cc1 (centres unmarked)	8.23
Cc1cccc(NC(=O)c2ccc3c(c2)C(=O)N(c2ccccc2C)C3=O)n1	19.8
COc1ccc(CCC(=O)Nc2nc3ccccc3[nH]2)cc1OC	-51.1
CCCc1cc(=O)oc2cc(OC(=O)CN3C(=O)NC4(CCCC4)C3=O)ccc12	2.91
S=C(Nc1ccc(Oc2ccccc2)cc1)N1CCN(c2ccccn2)CC1	10.1
Cc1ccc2oc(C(Cl)(Cl)Cl)cc(=O)c2c1	10.4
COc1ccccc1C(=O)C(O)c1ccccc1OC (centres unmarked)	-0.792
CCOc1cc(-c2nc(-c3ccncc3)no2)cc(OCC)c1OCC	-2.06
O=C(/C=C/c1cccc(Cl)c1)Nc1ccncc1	3.5
Cc1ccc(-c2nnc(SCC(=O)Nc3ccc4c(c3)oc3ccccc34)n2C)c(Cl)c1	6.02
Cc1ccccc1-n1c(-c2ccoc2)nc2ccccc2c1=O	12
O=[N+]([O-])c1ccc(O)c(Nc2ncnc3ccccc23)c1	10.4
NS(=O)(=O)c1ccc(NC(=O)c2cc(Cl)sc2Cl)cc1	-4.94
Br.COc1cccc(C(=O)Cn2c(NCCO)nc3ccccc32)c1	17.3
CC1(C)CC(=O)/C(=C(/O)Cc2ccccc2)C(=NCCc2ccccc2)C1	-0.981
CCN1C(=O)C(CC(=O)Nc2c(C)cccc2C)Nc2cc(S(=O)(=O)N(C)C)ccc21 (centres unmarked)	7.5
CCCCNC(=O)C1CCN(C/C(C)=C/c2ccccc2)CC1.O=C(O)C(=O)O	-33.9

SMILES	hERG current change (%, negative = inhibition) at 1uM [%]
Cc1cccc(NS(=O)(=O)c2ccc(C(=O)N3CCN(c4ccccc4O)CC3)cc2)c1C	14
COc1ccccc1CNC(=O)Cn1cccc1C(=O)c1ccccc1C	-1
Cc1cccc(C)c1NCc1nnc(SCC(=O)Nc2nc(-c3ccccc3)cs2)n1-c1ccccc1	-5.85
CCOC(=O)/C=C/C(=O)Nc1nccs1	13.4
COCCOC(=O)c1c(C)nc(SCC(=O)Nc2cccc3ccccc23)c(C#N)c1-c1ccco1	13.7
CC1CC(C)CN(C(=O)CCNS(=O)(=O)c2cccs2)C1 (centres unmarked)	1.81
c1cncc(-c2nc(NCC3CCCO3)c3ccccc3n2)c1 (centres unmarked)	13.4
CCc1cc2c(=O)n(CC)c(SC(C)C(=O)Nc3c(C)n(C)n(-c4ccccc4)c3=O)nc2s1 (centres unmarked)	-7.94
COc1ccc(-c2cc3nc4ccccc4n3c(N)c2C#N)cc1	5.05
CC(OC(=O)c1cc(=O)c2ccccc2o1)C(=O)Nc1ccc(N(C)C)cc1 (centres unmarked)	7.64
CCOC(=O)c1sc(NC(=O)c2ccc(C)s2)cc1C	6.31
Cc1ccc(CS(=O)Cc2ccc(C(=O)NCc3ccccc3Cl)o2)cc1 (centres unmarked)	3.78
CCc1nnc(NC(=O)CCC(=O)NC2CCCCC2)s1	10.9
CCc1cc(=O)oc2cc(C)cc(OCC(=O)NCCc3c[nH]c4ccccc34)c12	10.8
CC1(C)CC(=O)C(C=NCCCO)=C(O)C1	8.63
C/C(=N\NC(=O)c1ccc(N/N=C(\C)c2ccc(O)cc2)cc1)c1ccc(O)cc1.O=S(=O)(O)O	-4.96
CC(C)(C)NC(=O)C(c1ccccc1F)N(Cc1ccco1)C(=O)c1csnn1 (centres unmarked)	9.25
CCOc1cc(/C=C(/C#N)c2nc3ccccc3[nH]2)ccc1OCc1ccc(C(=O)O)o1	14
O=C(C1CCCN(Cc2ccccc2C(F)(F)F)C1)N1CCCCC1.O=C(O)C(=O)O (centres unmarked)	7.34
CCn1c(O)c(C=Nc2ccc(N3CCOCC3)cc2)c(=O)n(CC)c1=S	3.79
